# Source: ChEMBL document CHEMBL1201862, “PubChem BioAssay data set” (2004)
#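 Following 48 hours of exposure in 96-well plates, responses at five concentrations were used to interpolate endpoints linearly. Here, GI50 denotes the concentration required for 50% inhibition of growth.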 Activity calls are given as the source filed them. No stated cut-off is given here; in the data, active = GI50 up to about 1.1 µM and inactive = higher.
# Test system: NCI-H322M
# Assay: growth of human tumour cells (NCI), 48 h
row,SMILES,GI50
1,Cc1ccc(-n2cc(-c3ccc(Cl)cc3)c3c2N=CN2N=C(c4cccs4)NC32)cc1 (centres undefined),inactive: 40.3 µM
2,CNC(=O)c1nnn(C2CCCCC2)c1S,inactive: > 100 µM
3,O=C(NCc1cccnc1)NCc1cccnc1,inactive: > 100 µM
4,O=C1CSc2ccncc2N1,inactive: > 100 µM
5,O=C(NC(=O)c1cc(-c2ccccc2)n[nH]1)c1ccccc1,inactive: > 100 µM
6,CCO[C@@H]1CCC([S+]([O-])c2ccc(C)cc2)=CO1 (some centres undefined),inactive: > 100 µM
7,COc1ccc(/C=N/N=C(\N)NO)c(OC)c1OC,inactive: 15.9 µM
8,ClCc1nn(-c2ccccc2)c(CCl)c1CCl,inactive: 13.9 µM
9,COc1ccccc1NC(=O)CC(=O)n1nc(-c2ccccc2)c(/N=N/c2ccccc2[N+](=O)[O-])c1-c1ccccc1,inactive: > 100 µM
10,CCN(CC)CCn1nc(N)c2nc3ccccc3nc21,inactive: 25.5 µM
11,COc1ccc2c(CCNS(=O)(=O)c3ccccc3)c(C(C)=O)[nH]c2c1[N+](=O)[O-],inactive: > 100 µM
12,CCCCCCCCCCCCCP(=O)(OC)OC,inactive: 16.3 µM
13,COc1ccc2c(c1)C(N)=C(c1ccccc1)C2=O,inactive: > 100 µM
14,CCNC(=O)O/N=C1\CCC2[C@@H]3CC=C4C[C@@H](OC(=O)NCC)CC[C@]4(C)C3CC[C@]12C (some centres undefined),inactive: 2.62 µM
15,Cc1c(C(=O)Nc2ccc(Cl)cc2)nc(N)nc1-c1cccc(Cl)c1,inactive: > 100 µM
16,CCOC(=O)N(C)C1(c2ccccc2)CCN(CCCC(=O)c2ccc(F)cc2)CC1,inactive: 65.2 µM
17,O=C1c2cc(Cl)ccc2-n2c(noc2=O)C2CSCN12 (centres undefined),inactive: > 100 µM
18,Nc1cccc2c1-c1c(cccc1[N+](=O)[O-])C2=O,inactive: > 100 µM
19,COc1cc2cc(C(=O)N3CC(CCl)c4c3cc(NC(=O)C(C)Nc3c([N+](=O)[O-])cc(C(=O)NCCN(C)C)cc3[N+](=O)[O-])c3ccccc43)[nH]c2c(OC)c1OC (centres undefined),active: 0.084 µM
20,Cc1ccc(CC(C)N)cc1 (centres undefined),inactive: > 100 µM

row,SMILES,GI50
1,CC(=O)O[C@H]1CCC2[C@@H]3CC[C@]4(C)CC(=O)C=C[C@]4(C)C3CC[C@@]21C (some centres undefined),inactive: 48.3 µM
2,CCOC(=O)[C@@H]1OC(c2ccccc2)O[C@H]1C(=O)OCC,inactive: > 100 µM
3,CCO[C@]12CCC[C@H]1[C@@H]1C(=O)c3ccccc3C(=O)C1=C(C)O2,inactive: > 100 µM
4,C/C(=N\Nc1nc2cc(F)ccc2s1)c1ccccn1,active: 0.0548 µM
5,CC(=O)NNc1nc(C)c(C(/C=C/c2ccc(Cl)cc2)=N/NC(=S)NN)s1,inactive: > 100 µM
6,CCOC(=O)CN(CC)C(=O)NC12CC3CC(CC(C3)C1)C2,inactive: 230 µM
7,O=C(c1ccc(Br)cc1)n1c2ccc(Br)cc2c2nc3ccccc3nc21,inactive: > 100 µM
8,N=c1oc2ccc3ccccc3c2cc1C(N)=O,inactive: 32.5 µM
9,Nc1ncnc2oc(C3OC(COC(=O)c4ccccc4)C(OC(=O)c4ccccc4)C3OC(=O)c3ccccc3)nc12 (centres undefined),inactive: 34.7 µM
10,O=C(O)C(O)C(O)C(O)C(O)CO.[Ba+2] (centres undefined),inactive: > 100 µM
11,COc1cc(C(=O)N(C)N(C)C)cc(OC)c1OC,inactive: > 10 µM
12,COC(=O)c1cccc2c1Oc1ccccc1S2,inactive: > 100 µM
13,COc1ccc(-n2c(C)nc3ccc(NC4OC(COC(C)=O)C(OC(C)=O)C(OC(C)=O)C4OC(C)=O)cc3c2=O)cc1 (centres undefined),inactive: > 100 µM
14,NC(=O)COc1c(Br)cc(Br)cc1Br,inactive: > 100 µM
15,CC(=O)N1N=C(c2ccc3ccccc3c2O)CC1C(=O)c1ccco1 (centres undefined),inactive: 30.1 µM
16,C/C(Cl)=N/OC(=O)Nc1ccc(S(N)(=O)=O)c(C)c1,inactive: 30.8 µM
17,C=C1C(=O)C[C@@]23CCC[C@@]12CC(O)C3 (some centres undefined),inactive: 29.6 µM
18,O=C(O)CNS(=O)(=O)c1ccc(NC(=O)Nc2ccccc2)cc1,inactive: > 100 µM
19,CC1=CC(=O)C(=C(C)C)CC1,inactive: > 100 µM
